Source: paper PMC3493068
No constants are given. Whether binding was seen depends on the method and setting. In cells and extracts the contact can be indirect. Some results given as binding are weak or reduced against the parent protein; the word gives no strength. Tags and fused reporters may be left off the sequences shown.

Assays:
[1] = target: T1, c-myc-tagged human dysferlin deletion mutant aa 1081-2080 (without the C2A domain) (human) (UniProt O75923); experiment: co-IP; COS-7 cells co-transfected with FLAG-MG53 and c-myc-dysferlin constructs, lysed 48 h later in 20 mM Tris-HCl pH 7.5, 150 mM NaCl, 1% NP-40 without CaCl2 and EGTA; IP with anti-FLAG (M2) or anti-c-myc (9E10), immunoblot
T1 sequence: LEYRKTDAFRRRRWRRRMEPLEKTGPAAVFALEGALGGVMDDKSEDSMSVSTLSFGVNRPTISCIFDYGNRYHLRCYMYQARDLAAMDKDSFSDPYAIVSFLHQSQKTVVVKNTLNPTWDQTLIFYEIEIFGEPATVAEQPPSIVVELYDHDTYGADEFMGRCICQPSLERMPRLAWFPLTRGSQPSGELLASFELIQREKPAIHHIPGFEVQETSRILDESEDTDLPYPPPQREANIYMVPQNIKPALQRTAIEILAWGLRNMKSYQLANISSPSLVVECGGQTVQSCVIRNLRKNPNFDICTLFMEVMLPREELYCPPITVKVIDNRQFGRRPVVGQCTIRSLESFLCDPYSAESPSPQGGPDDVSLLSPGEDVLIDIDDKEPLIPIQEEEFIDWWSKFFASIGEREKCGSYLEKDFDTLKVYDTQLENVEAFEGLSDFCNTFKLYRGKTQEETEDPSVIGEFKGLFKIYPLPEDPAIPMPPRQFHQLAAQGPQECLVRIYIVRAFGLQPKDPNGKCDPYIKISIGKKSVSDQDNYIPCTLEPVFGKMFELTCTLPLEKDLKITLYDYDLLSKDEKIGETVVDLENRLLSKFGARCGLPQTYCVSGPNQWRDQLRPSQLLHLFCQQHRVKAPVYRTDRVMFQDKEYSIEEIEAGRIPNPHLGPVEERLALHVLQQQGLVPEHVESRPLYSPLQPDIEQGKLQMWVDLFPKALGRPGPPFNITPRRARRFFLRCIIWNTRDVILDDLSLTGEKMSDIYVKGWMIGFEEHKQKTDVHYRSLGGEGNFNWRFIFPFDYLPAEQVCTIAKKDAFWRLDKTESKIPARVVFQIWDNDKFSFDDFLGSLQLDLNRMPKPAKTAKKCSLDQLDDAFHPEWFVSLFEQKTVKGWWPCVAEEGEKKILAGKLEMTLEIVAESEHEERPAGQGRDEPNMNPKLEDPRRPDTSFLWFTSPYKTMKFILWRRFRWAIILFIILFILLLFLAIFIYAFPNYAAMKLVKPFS

[2] = target: c-myc-tagged full-length human dysferlin (human) (UniProt O75923); experiment: as above

B1: FLAG-tagged full-length human MG53 (protein, UniProt Q6ZMU5 1-477)
chain: MSAAPGLLHQELSCPLCLQLFDAPVTAECGHSFCRACLGRVAGEPAADGTVLCPCCQAPTRPQALSTNLQLARLVEGLAQVPQGHCEEHLDPLSIYCEQDRALVCGVCASLGSHRGHRLLPAAEAHARLKTQLPQQKLQLQEACMRKEKSVAVLEHQLVEVEETVRQFRGAVGEQLGKMRVFLAALEGSLDREAERVRGEAGVALRRELGSLNSYLEQLRQMEKVLEEVADKPQTEFLMKYCLVTSRLQKILAESPPPARLDIQLPIISDDFKFQVWRKMFRALMPALEELTFDPSSAHPSLVVSSSGRRVECSEQKAPPAGEDPRQFDKAVAVVAHQQLSEGEHYWEVDVGDKPRWALGVIAAEAPRRGRLHAVPSQGLWLLGLREGKILEAHVEAKEPRALRSPERRPTRIGLYLSFGDGVLSFYDASDADALVPLFAFHERLPRPVYPFFDVCWHDKGKNAQPLLLVGPEGAEA
binding [1]: no binding
binding [2]: binds
